Assay results as given in PubChem BioAssay AID1671194 (National Center for Advancing Translational Sciences (NCATS), 2021).
Out of some 140,000 compounds screened, about 240 (0.17%) were called active. Inconclusive means that the source gave no clear call. Such entries were picked first, then a sample of the others. Calls come from the whole dose curve; as a rule, active = well fitted inhibition curve with a large enough effect; inconclusive = small, poorly fitted or top-dose-only effect; inactive = no such curve, though single readings can be large or run the other way. Potencies of inconclusive entries are doubtful fits and often do not repeat.

assay: Primary qHTS assay for inhibitors of alpha-synuclein gene (SNCA) expression; conditions: HEK-293 SNCA-luciferase knock-in, luminescence, 24 h; series mostly up to 57.2 µM; note: nearly all actives have a fitted effect of over 45% in size
Potency is the fitted concentration of half-maximal effect; tags give direction and shape of the fitted curve.

Q: Which Potency does the source give for `COc1cccc(CNC(=O)C(Cc2ccccc2)NS(=O)(=O)c2ccc3c(c2)oc(=O)n3C)c1` (configuration not stated) here?
A: inconclusive: 7.08 µM [inhibitor, single point]

Q: With `CN1CCC(C(=O)N2CCC3(CC2)C(=O)NCN3C(=O)Cc2ccccc2)CC1` as the compound, how does the Potency read?
A: inconclusive: 8.91 µM [inhibitor, single point]

Q: Which Potency does the source give for `Cc1cccc(N2CCN(c3ccc(NC(=O)c4ccccc4)cc3C(=O)O)CC2C)c1` (configuration not stated) here?
A: inconclusive: 17.8 µM [inhibitor, single point]

Q: With `Cc1noc2nc(C(C)C)cc(C(=O)NC3CCCc4c3[nH]c3c(Cl)cccc43)c12` (configuration not stated) as the compound, how does the Potency read?
A: inactive

Q: With `Cc1ccc(S(=O)(=O)NCC(Nc2cccc(Cl)c2)c2ccccc2)cc1` (configuration not stated) as the compound, how does the Potency read?
A: inconclusive: 35.5 µM [inhibitor, single point]

Q: With `O=C(Nc1nccs1)[C@@H]1O[C@H](CCN2CCCCC2)CC[C@@H]1O` as the compound, how does the Potency read?
A: inactive

Q: Which Potency does the source give for `COCCNC(=O)C(NC(=O)c1ccc(OC)cc1)C1CCN(C(=O)c2ccccc2)CC1` (configuration not stated) here?
A: inactive

Q: For `COC(=O)N1CCCC1C(=O)N1CCC(c2ccccc2)CC1` (configuration not stated), which Potency is on record?
A: inactive

Q: Which Potency does the source give for `CC(=O)c1c(C)nn(CC(=O)N2CCn3nc(Cc4ccccc4)cc3C2)c1C` here?
A: inconclusive: 8.91 µM [inhibitor, single point]

Q: For `CC(C)CC(=O)NCC1Cn2cccc2C(=O)N1Cc1ccccc1` (configuration not stated), which Potency is on record?
A: inconclusive: 39.8 µM [inhibitor, single point]

Q: With `O=C(Nc1ccc(Cl)cc1Cl)c1cnn2c1CN(C(=O)OCc1ccccc1)CC2` as the compound, how does the Potency read?
A: inconclusive: 1.41 µM [inhibitor, partial curve, poor fit]

Q: For `CCOc1ccccc1NC(=O)N1CCc2c(sc3c2CCCC3)C1c1ccccc1` (configuration not stated), which Potency is on record?
A: inconclusive: 14.1 µM [inhibitor, partial curve]

Q: For `Cc1nc2cccnc2n1CC1CCCN(C(=O)Nc2cccc(Cl)c2)C1` (configuration not stated), which Potency is on record?
A: inconclusive: 35.5 µM [inhibitor, single point]

Q: Which Potency does the source give for `CC(C)OCCCn1c(=O)c2ccccc2n2c(-c3cc(Cl)ccc3O)nnc12` here?
A: inconclusive: 7.08 µM [inhibitor, single point]

Q: Which Potency does the source give for `CCCOc1ccc(C2c3c(-c4ccccc4O)n[nH]c3C(=O)N2Cc2cccnc2)cc1` (configuration not stated) here?
A: inconclusive: 44.7 µM [inhibitor, single point]

Q: Which Potency does the source give for `O=C(Cn1nc2c(cc1=O)CCCCC2)NCc1ccc(C(=O)O)cc1` here?
A: inactive

Q: Which Potency does the source give for `CN1CCN(c2cc(=O)c3ccnc(-c4ccc([S+](C)(=O)[O-])cc4)c3o2)CC1` here?
A: inactive

Q: With `CN(C(=O)c1ccc(C(F)(F)F)cc1)C1CCc2ccccc21` (configuration not stated) as the compound, how does the Potency read?
A: inactive

Q: With `Cc1cccc(N2CCN(C(=O)CCc3ccnc(N4CCCC4)c3)CC2)c1` as the compound, how does the Potency read?
A: inactive

Q: Which Potency does the source give for `Cc1ccc(CNc2ncnc3onc(C)c23)cc1` here?
A: inconclusive: 2 µM [inhibitor, full curve]

Q: With `Cc1cc(-c2nccc3c(=O)cc(N4CCOCC4)oc23)ccn1` as the compound, how does the Potency read?
A: inactive

Q: Which Potency does the source give for `COc1ccc(-c2c(C(=O)N3CCN(C)CC3)nc3sccn23)cc1` here?
A: inactive

Q: For `CCCCOc1ccc(CNC(=O)C2CCCN(c3nnc(-n4c(C)ccc4C)s3)C2)cc1` (configuration not stated), which Potency is on record?
A: inconclusive: 39.8 µM [inhibitor, single point]

Q: For `COc1ccc(CNC(=O)[C@@H]2Cc3c[nH]c4cccc(c34)[C@H](CC(C)C)N2)cc1`, which Potency is on record?
A: inconclusive: 56.2 µM [inhibitor, single point]

Q: Which Potency does the source give for `CS(=O)(=O)N1CCN(c2ccc(Cl)nn2)C(=O)C1` here?
A: inconclusive: 12.6 µM [inhibitor, partial curve, poor fit]

Q: For `CC1=C[C@@H](CNS(C)(=O)=O)[C@H](C(C)C)C[C@H]1Cc1nc2ccc(F)cc2[nH]1`, which Potency is on record?
A: inconclusive: 8.91 µM [inhibitor, partial curve, poor fit]

Q: With `O=S(=O)(NCC(c1ccccc1)N1CCc2ccccc21)c1ccccc1` (configuration not stated) as the compound, how does the Potency read?
A: inconclusive: 39.8 µM [inhibitor, single point]

Q: Which Potency does the source give for `COc1cccc2c1C(=O)c1c(O)c3c(c(O)c1C2=O)C[C@@](O)(C(C)=O)C[C@@H]3O[C@H]1C[C@H](N)[C@H](O)[C@H](C)O1` here?
A: inconclusive: 12.6 µM [inhibitor, partial curve, poor fit]

Q: With `CC#CCn1cc2c3c(cccc31)[C@H](CC(C)C)N[C@H](C(=O)NCc1ccc(OC)cc1)C2` as the compound, how does the Potency read?
A: inactive

Q: With `COc1ccc(C(=O)N2CC[C@@H]3COCCN(Cc4cccnc4)[C@@H]3C2)c(OC)c1` as the compound, how does the Potency read?
A: inconclusive: 39.8 µM [inhibitor, single point]

Q: For `COc1cc(NC(=O)Cn2cnc3sc(C)c(S(=O)(=O)N4CCC(C)CC4)c3c2=O)cc(OC)c1OC`, which Potency is on record?
A: inconclusive: 7.08 µM [inhibitor, single point]

Q: With `CSc1ccc(-c2noc(-c3nnn4c3COC(c3ccc(F)cc3)C4)n2)cc1` (configuration not stated) as the compound, how does the Potency read?
A: inactive

Q: For `CO[C@H]1CN(C2CCN(C(=O)c3cc(C)n(C)n3)CC2)[C@H]1c1cccnc1`, which Potency is on record?
A: inactive

Q: Which Potency does the source give for `Cc1nn2c(c1-c1ccccc1N1CCCC1)N(C(=O)COc1ccccc1)CCC2` here?
A: inconclusive: 35.5 µM [inhibitor, partial curve]

Q: Which Potency does the source give for `O=C(Nc1ccc(OC(F)(F)F)cc1)C1CCCN(S(=O)(=O)c2cccc3nonc23)C1` (configuration not stated) here?
A: inconclusive: 0.251 µM [inhibitor, full curve, poor fit]

Q: Which Potency does the source give for `CN(C)C(=O)c1c[nH]c2cccnc12` here?
A: inactive

Q: For `Cc1cccc(OCC(=O)Nc2nonc2-c2ccc(Br)cc2)c1C`, which Potency is on record?
A: inconclusive: 2.51 µM [inhibitor, full curve, poor fit]

Q: For `CCCN1C(=O)C(O)(CC(=O)c2ccc(CC)cc2)c2cc(Br)ccc21` (configuration not stated), which Potency is on record?
A: inconclusive: 28.2 µM [inhibitor, single point]

Q: Which Potency does the source give for `COc1ccccc1-c1cccc(CN2CCCC(C(=O)NCCc3ccc(F)cc3)C2)c1` (configuration not stated) here?
A: inconclusive: 39.8 µM [inhibitor, single point]

Q: Which Potency does the source give for `O=C(NCc1ccco1)C1CCN(C(=O)c2ncn3c2COC(c2ccccc2)C3)CC1` (configuration not stated) here?
A: inactive

Q: With `CC(C)(C)c1ccnc(N[C@H]2CO[C@H]3[C@@H]2OC[C@@H]3NS(=O)(=O)c2cccs2)n1` as the compound, how does the Potency read?
A: inconclusive: 5.01 µM [inhibitor, full curve]

Q: Which Potency does the source give for `COCC1CN(C2CCC2)CC12CCN(C(=O)CCCc1ccccc1)CC2` (configuration not stated) here?
A: inactive
